Assay results taken from ChEMBL document CHEMBL3526033, “Identification of human liver cytochrome P450 enzymes involved in the metabolism of SCH 530348 (Vorapaxar), a potent oral thrombin protease-activated receptor 1 antagonist” (Drug Metab Dispos, 2011).

Substrate: CCOC(=O)N[C@@H]1CC[C@@H]2[C@@H](C1)C[C@H]1C(=O)O[C@H](C)[C@H]1[C@H]2/C=C/c1ccc(-c2cccc(F)c2)cn1
Assay: Activity of human recombinant CYP3A4 assessed as enzyme-mediated (3R,3aS,4S,4aR,7R,8aR,9aR)-7-amino-4-((E)-2-(5-(3-fluorophenyl)pyridin-2-yl)vinyl)-3-methyldecahydronaphtho[2,3-c]furan-1(3H)-one formation by LC-MS/MS analysis
Format: ADME

B1: Cytochrome P450 3A4 (Homo sapiens) (protein)
chain: MALIPDLAMETWLLLAVSLVLLYLYGTHSHGLFKKLGIPGPTPLPFLGNILSYHKGFCMFDMECHKKYGKVWGFYDGQQPVLAITDPDMIKTVLVKECYSVFTNRRPFGPVGFMKSAISIAEDEEWKRLRSLLSPTFTSGKLKEMVPIIAQYGDVLVRNLRREAETGKPVTLKDVFGAYSMDVITSTSFGVNIDSLNNPQDPFVENTKKLLRFDFLDPFFLSITVFPFLIPILEVLNICVFPREVTNFLRKSVKRMKESRLEDTQKHRVDFLQLMIDSQNSKETESHKALSDLELVAQSIIFIFAGYETTSSVLSFIMYELATHPDVQQKLQEEIDAVLPNKAPPTYDTVLQMEYLDMVVNETLRLFPIAMRLERVCKKDVEINGMFIPKGVVVMIPSYALHRDPKYWTEPEKFLPERFSKKNKDNIDPYIYTPFGSGPRNCIGMRFALMNMKLALIRVLQNFSFKPCKETQIPLKLSLGGLLQPEKPVVLKVESRDGTVSGA
- Km: 22.9 µM
- Vmax: 0.000166 µmol/min
